{"source": "paper PMC5473854", "about": "“Structure of the human TRiC/CCT Subunit 5 associated with hereditary sensory neuropathy” (Scientific Reports, 2017)", "target": "the molecule itself", "assay": "crystal structure; crystallised in complex with 5.0 mM ADP, closed state; sitting-drop vapor diffusion; 0.1 M sodium acetate, 0.04 M citric acid, 0.06 M Bis-Tris propane pH 6.4, 25% (w/v) PEG 400; space group P 4 21 2, 4 subunits per asymmetric unit"}
{"protein": "human CCT[…]R mutant, homo-oligomeric complex (natural protein, T-complex protein 1 subunit epsilon (TRiC/CCT subunit 5, CCT5), human, with the disease-associated mutation H147R (hereditary sensory neuropathy); made from the CCT5 plasmid; Crystallised with ADP; same double homo-octameric ring arrangement as the wild type; The mutation occurs in patients (autosomal recessive mutilating sensory neuropathy); The His tag is surmised from the Histrap step; also …) not shown", "values": [{"measurement": "stoichiometry N", "result": 16, "unit": "subunits"}]}
